Some of the results follow. At the low end of the ranking the order means little. Measured with an extract: partners may take part in the binding.

In this assay the target is T1, HNF4alpha8 (COS-7 nuclear extract) (UniProt P41235-5).
T1 sequence: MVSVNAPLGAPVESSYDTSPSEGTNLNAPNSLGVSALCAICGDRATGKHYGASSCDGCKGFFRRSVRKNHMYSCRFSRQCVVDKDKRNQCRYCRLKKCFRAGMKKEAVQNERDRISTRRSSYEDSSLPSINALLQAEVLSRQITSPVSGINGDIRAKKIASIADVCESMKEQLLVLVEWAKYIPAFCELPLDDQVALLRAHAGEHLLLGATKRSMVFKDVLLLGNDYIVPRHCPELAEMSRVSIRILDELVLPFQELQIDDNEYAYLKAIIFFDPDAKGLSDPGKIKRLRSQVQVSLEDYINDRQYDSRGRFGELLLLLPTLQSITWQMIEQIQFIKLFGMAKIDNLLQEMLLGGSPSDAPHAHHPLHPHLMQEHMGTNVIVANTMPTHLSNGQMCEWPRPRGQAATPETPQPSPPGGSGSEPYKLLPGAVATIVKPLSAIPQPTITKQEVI
Kind of assay: protein-binding microarray. As to conditions: COS-7 nuclear extract on double-stranded Agilent 4x180k PBM; binding buffer, salt, pH and temperature not given; high values mean tight binding; double strand, one strand shown; sequences stand for … in …GCCTAGGGAGATTAGAGTATCGGTCGA
Turning to TGCCCTTTGCCTGGTGATCTTTGTTAGACC, the binding signal (log2 normalized intensity) amounted to 3.02.

Take AGAAGCCACTGCGACCTTTGCCCTCCCTAA: the binding signal (log2 normalized intensity) amounted to 8.33.

Turning to AAGGCAAGGGTCAAGATGTCTCAAGATATC, the binding signal (log2 normalized intensity) came to 1.06.

Turning to ATAAGAAGGGGTCAGACCAGACAGCACCTC, the binding signal (log2 normalized intensity) was -1.25.

On to ATGGTGCCTATTTGTCCCTGACCAAACTCA, for which the binding signal (log2 normalized intensity) was -1.29.

Take TTAAAGTGCCATTGAGATGGTAACCACACC: the binding signal (log2 normalized intensity) was -0.775.

As for TCTGTGTGTATGTGTGTGTACACATTGATA, the binding signal (log2 normalized intensity) was found to be 2.49.

CAGCTTCAGGAGCTGCAGGGAAGCCCCTGC: the binding signal (log2 normalized intensity) was -1.03.

Consider ATGTGGTCAAAACTTTGTTTGAGTTCCAAA, for which the binding signal (log2 normalized intensity) is 1.01.

ATAGAAAGCCTTTGAACTGTGTTGCAAATT: the binding signal (log2 normalized intensity) came to 1.65.

GGTCAAGAGGGACAAAATGCCCAGGATTCC: the binding signal (log2 normalized intensity) is -1.35.

For GTGAATGACCCCTCCCCTCCCCCTTGGTGT, the binding signal (log2 normalized intensity) worked out at 5.83.

For the sequence ACACAGGATTGAACCTCTGGAATTCATCTC, the binding signal (log2 normalized intensity) amounted to 0.885.

Turning to AACTCAAAGATTCTTAGAGAGTTGGGCAAG, the binding signal (log2 normalized intensity) was -1.45.

In the case of CAAACACGGACAGGCAGGCCCAGACATGTC, the binding signal (log2 normalized intensity) is -1.07.

Consider GGATTTCCGTAACCTCACAGAAATCCAAAG, for which the binding signal (log2 normalized intensity) was -1.12.

ATCAGAGCATGCATACGTGAAAGTAAAGAG: the binding signal (log2 normalized intensity) was -0.959.

For AGCTGTGCGGTAGGCATTGAGGCAGCCAGC, the binding signal (log2 normalized intensity) is -1.14.

As to TAACTCAAACATCTGACAGAGATAAGGAAG, the binding signal (log2 normalized intensity) was -1.28.

For CTTTAAGGTCACATAGCAGGCATACCAGGC, the binding signal (log2 normalized intensity) was -0.87.

For AATGAGATCTCCCCACATTCCAACACAGGG, the binding signal (log2 normalized intensity) was 0.464.

Turning to CTTGTCCAACTCCCCTCCCAAGGCAGCAAT, the binding signal (log2 normalized intensity) came out at 4.39.

On to ACAAAGATCCCTTATTTGCATGAAGCACAA, for which the binding signal (log2 normalized intensity) is -1.17.

Regarding GAGTACATGCCTCTCCCAGTGGAATGCAAA, the binding signal (log2 normalized intensity) was -0.435.

Consider TTCATCTGGGACGTGGCTCAAGATTACAGG, for which the binding signal (log2 normalized intensity) was -1.04.

In the case of ATTCACTTTTTGGCCTTTGGCTGTTCGATG, the binding signal (log2 normalized intensity) was determined as 2.69.

With GTTTCGCAAGGACGTGACCTTTATGGGAAA, the binding signal (log2 normalized intensity) was determined as 3.65.

With ATGGTTTACCATATTTACTTATGGTTTGAC, the binding signal (log2 normalized intensity) was found to be 1.38.

In the case of TCATGATTAGATTGAAGTTACGTATTTTTG, the binding signal (log2 normalized intensity) came to 1.37.

CATTCCTTAACATGGTTTGCAAGACCTCTG: the binding signal (log2 normalized intensity) worked out at 1.16.

Consider TAATACAAGAGGCTTCTTATCAGCAGCTGG, for which the binding signal (log2 normalized intensity) was -1.26.

For CTAGTTCTTATCTCAGGTCCTGCCATTAAA, the binding signal (log2 normalized intensity) was 0.453.

On to CAGCTCAGCTAGTGAGATACGGCCTGGACT, for which the binding signal (log2 normalized intensity) is 1.92.

On to GTCGCGTATCTGACTTTATCATTGGACTCT, for which the binding signal (log2 normalized intensity) was determined as 5.43.

With TCTGTTGAGAACTGGAGCAAAGGTCACTCT, the binding signal (log2 normalized intensity) stood at 6.54.

AGAAAACGTAAGCCCTCTATCAAAGGAGAA: the binding signal (log2 normalized intensity) is -1.31.

On to ATGGCAGGGGTTAACCTCTATTGACCTTCT, for which the binding signal (log2 normalized intensity) stood at 4.96.

On to TCTCCTAAAGTGACTAGAGAGCAGGAGCCA, for which the binding signal (log2 normalized intensity) was -1.41.

Regarding GCCGGCCCGGTGCGCTGGCCTTGCTTTTCA, the binding signal (log2 normalized intensity) is -1.38.

In the case of AGTTCTGTCCTTTGTCCTGTACCTGGGAAG, the binding signal (log2 normalized intensity) came to 2.47.

For ATAAATAAGAAGCCTTATCAGTATCAATGA, the binding signal (log2 normalized intensity) was -1.18.

Take CCATTTCTCAGGTTGTGTTTGCAGTGAGTA: the binding signal (log2 normalized intensity) was 1.77.

For the sequence TTCCAAACATGTTTCGAACGGTTGCAGCAT, the binding signal (log2 normalized intensity) was -1.27.

As for CCAGCTGCAGAGGAAGGACATGGTAAAGAT, the binding signal (log2 normalized intensity) is -1.24.

Turning to AGAACAAACAATGGTTTGGGACAAAGTTTG, the binding signal (log2 normalized intensity) is 0.64.

As to GAAGGCCAGGCAGCACAATTTGTGTCTCTC, the binding signal (log2 normalized intensity) is -1.18.

Take CACTGGGGTTTAAAGTTTATAGGCTAGAAT: the binding signal (log2 normalized intensity) amounted to 0.688.

Regarding CTAAGCAGCTGCAGTTTCTGCTATCTGCCT, the binding signal (log2 normalized intensity) was -1.42.

Take CCGTCCTCCCCCACGACAGAATTGACTCTT: the binding signal (log2 normalized intensity) was 4.1.

Turning to AAGCTGTGGGATCCAACCAGAGGGAAGAGA, the binding signal (log2 normalized intensity) was -1.37.

On to CTGCCCAGACCTTATCTTGCATTTCTTCAG, for which the binding signal (log2 normalized intensity) stood at 0.246.

For the sequence TTCACCGTATTATCTTATCTCCTCTGTAGG, the binding signal (log2 normalized intensity) worked out at 1.29.

ACCTCAAATGCAGGTGAGAGGCCTCTAAGC: the binding signal (log2 normalized intensity) is -1.36.

Regarding AGCTCCAGGAGACGTAGAGATAAGGTCTTC, the binding signal (log2 normalized intensity) was -1.28.

On to TTAAGGACAAAGGCTTTGAGTCAACACACC, for which the binding signal (log2 normalized intensity) is -1.21.

CTCGAGGTGGACTTTCCCCCCTCACACTTT: the binding signal (log2 normalized intensity) came to 5.92.

For TTTTCCCTGCTGCTGGCTGGCGGCCTTTGG, the binding signal (log2 normalized intensity) is 2.25.

Take GGCTTGTGCTTAGCTATTTCGTTGAATGCT: the binding signal (log2 normalized intensity) is -1.29.

As to GGTACGTTCCAATATTCTGGCTTCTCGTGA, the binding signal (log2 normalized intensity) is -1.24.

As to GGGAAAAGATGGTCTCTCACCTGGCTTCCC, the binding signal (log2 normalized intensity) was -1.33.

As to CCCGGCTTTGGGCTTGAGCAGCTGGTGGAG, the binding signal (log2 normalized intensity) is -1.24.

With AGAAAAGAAAGTGAGGAATGCAACCACACC, the binding signal (log2 normalized intensity) was -1.12.

As for ATTGGTTTCCGCTAAGTCCAAAGGTAAAAA, the binding signal (log2 normalized intensity) was 4.56.

For GACCCTCGGGCCTCCCTAGAGGCCTTCTCT, the binding signal (log2 normalized intensity) was -1.31.

Turning to TATGTTGCTGATAAAGTCTATCTTAGCCAT, the binding signal (log2 normalized intensity) was -0.393.

For the sequence CCCGCCCAGATGTCTGGCTAAGACCTTTAG, the binding signal (log2 normalized intensity) turned out to be 2.3.

For AACTGCAGGAGTCGGGAGGTAGGGGTGGCG, the binding signal (log2 normalized intensity) is -1.32.

For the sequence TGGCTCCAAAGTCTATGTGTGCTTTCTTCA, the binding signal (log2 normalized intensity) worked out at 2.67.

For AATACTTGCCTAAGGTCAATGTCCTTTTTC, the binding signal (log2 normalized intensity) came to 4.53.

Consider TGTTCTTGCCTGATAGCATCGTGGGTATTT, for which the binding signal (log2 normalized intensity) stood at 1.25.

Regarding GCGCCGGCCTCGGTCCTCGCTCGCCCGAGC, the binding signal (log2 normalized intensity) was -1.26.

For TTACCCCTTGAGTTTGAACTTTGACTTATT, the binding signal (log2 normalized intensity) was 7.24.

Turning to TTAAAAGTTTCCCTTGATCAAAAACTGCCT, the binding signal (log2 normalized intensity) was -0.872.

For GGGGCGCAGAAGGGATGGGAACCGACCTTT, the binding signal (log2 normalized intensity) was found to be 6.53.

TGTCCCCCATCTCATCCTGGGTGCCTTACA: the binding signal (log2 normalized intensity) worked out at 1.48.

For the sequence CTGCTTCCCTAGGGAGGTGATTGGTGAGTC, the binding signal (log2 normalized intensity) was -0.738.

On to AGGCCAGCAGTGCTTTTCCCAGGAATAAAA, for which the binding signal (log2 normalized intensity) was -1.33.

For AGAACTTTGACCGTTTGATTATTTGTGAAG, the binding signal (log2 normalized intensity) amounted to 2.59.

As for CGGCGCCCGCCCACTGGAGACTTCAAACGG, the binding signal (log2 normalized intensity) worked out at 1.

As for TTATTCCGTACAAGGATTCATTTCCACCCT, the binding signal (log2 normalized intensity) came out at 1.41.

With ACATTCCACGTTTGGGGAAGGATAAAATGA, the binding signal (log2 normalized intensity) is -1.01.

On to AATGTCTTTCCTGCAGAGGGACTGACTCCC, for which the binding signal (log2 normalized intensity) was -0.782.

With GCAAACAAGGGCAACTCTAATAGCACAGAT, the binding signal (log2 normalized intensity) is -1.28.

As for TTGAACCTTTCTTTGTCTTTGCAATGTTGT, the binding signal (log2 normalized intensity) stood at 2.99.

Turning to TCTGTGCTCATTATTATCAGCAAGAAAATC, the binding signal (log2 normalized intensity) was -1.32.

Turning to AGCTGCAGTCATGGAGGCATCATAAACTCC, the binding signal (log2 normalized intensity) was -1.33.

As to TTTGTCTCTGGAGGGATCAGGTCTTTCCTG, the binding signal (log2 normalized intensity) was determined as 1.51.

In the case of CCGTCCACCTTTGGATCCAGCTCCTGATGT, the binding signal (log2 normalized intensity) was 1.54.

On to CCCAGTGAGCAATTCTTGTCCCTTTCAAGG, for which the binding signal (log2 normalized intensity) turned out to be 0.507.

As for GGTCAAGAGTTTTAAAGTATCCCATCCATT, the binding signal (log2 normalized intensity) worked out at 1.7.

In the case of GTGGACACAAAAAGGCTGTCACACTTGCCC, the binding signal (log2 normalized intensity) is 0.365.

For the sequence TATGAGCGGCGCTGACCCCGGGAGCAGCAT, the binding signal (log2 normalized intensity) is 2.57.

With GTAGTTACAGCTCATTAATCATCCGTCACC, the binding signal (log2 normalized intensity) was -1.3.

Values taken from publication PMC10726135.
